Test results: article PMC6440744
Results are given in words; binding and its absence hold for the method and conditions named. Binding seen in cells or lysates may run through a third protein. Some entries that bind do so weakly or less than the wild type.

Protein sequences, listed by entry. Tags and fused reporters are not part of them. Residues count along the entry.
UniProt P28827, residues 877-1452: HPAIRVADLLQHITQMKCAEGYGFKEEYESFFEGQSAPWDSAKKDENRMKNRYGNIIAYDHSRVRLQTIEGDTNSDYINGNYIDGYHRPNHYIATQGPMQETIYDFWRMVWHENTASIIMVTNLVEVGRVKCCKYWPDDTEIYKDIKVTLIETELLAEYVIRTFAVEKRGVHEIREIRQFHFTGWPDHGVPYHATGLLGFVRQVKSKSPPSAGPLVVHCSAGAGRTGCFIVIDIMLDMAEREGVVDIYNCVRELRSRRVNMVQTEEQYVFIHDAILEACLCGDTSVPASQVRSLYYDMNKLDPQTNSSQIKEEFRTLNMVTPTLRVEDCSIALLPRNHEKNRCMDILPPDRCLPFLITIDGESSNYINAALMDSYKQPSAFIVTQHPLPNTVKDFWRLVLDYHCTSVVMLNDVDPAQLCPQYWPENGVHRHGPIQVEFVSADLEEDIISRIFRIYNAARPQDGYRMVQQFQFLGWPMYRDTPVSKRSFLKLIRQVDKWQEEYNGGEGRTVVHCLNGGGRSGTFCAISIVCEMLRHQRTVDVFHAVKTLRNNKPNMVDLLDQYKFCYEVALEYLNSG
UniProt Q8N4C8: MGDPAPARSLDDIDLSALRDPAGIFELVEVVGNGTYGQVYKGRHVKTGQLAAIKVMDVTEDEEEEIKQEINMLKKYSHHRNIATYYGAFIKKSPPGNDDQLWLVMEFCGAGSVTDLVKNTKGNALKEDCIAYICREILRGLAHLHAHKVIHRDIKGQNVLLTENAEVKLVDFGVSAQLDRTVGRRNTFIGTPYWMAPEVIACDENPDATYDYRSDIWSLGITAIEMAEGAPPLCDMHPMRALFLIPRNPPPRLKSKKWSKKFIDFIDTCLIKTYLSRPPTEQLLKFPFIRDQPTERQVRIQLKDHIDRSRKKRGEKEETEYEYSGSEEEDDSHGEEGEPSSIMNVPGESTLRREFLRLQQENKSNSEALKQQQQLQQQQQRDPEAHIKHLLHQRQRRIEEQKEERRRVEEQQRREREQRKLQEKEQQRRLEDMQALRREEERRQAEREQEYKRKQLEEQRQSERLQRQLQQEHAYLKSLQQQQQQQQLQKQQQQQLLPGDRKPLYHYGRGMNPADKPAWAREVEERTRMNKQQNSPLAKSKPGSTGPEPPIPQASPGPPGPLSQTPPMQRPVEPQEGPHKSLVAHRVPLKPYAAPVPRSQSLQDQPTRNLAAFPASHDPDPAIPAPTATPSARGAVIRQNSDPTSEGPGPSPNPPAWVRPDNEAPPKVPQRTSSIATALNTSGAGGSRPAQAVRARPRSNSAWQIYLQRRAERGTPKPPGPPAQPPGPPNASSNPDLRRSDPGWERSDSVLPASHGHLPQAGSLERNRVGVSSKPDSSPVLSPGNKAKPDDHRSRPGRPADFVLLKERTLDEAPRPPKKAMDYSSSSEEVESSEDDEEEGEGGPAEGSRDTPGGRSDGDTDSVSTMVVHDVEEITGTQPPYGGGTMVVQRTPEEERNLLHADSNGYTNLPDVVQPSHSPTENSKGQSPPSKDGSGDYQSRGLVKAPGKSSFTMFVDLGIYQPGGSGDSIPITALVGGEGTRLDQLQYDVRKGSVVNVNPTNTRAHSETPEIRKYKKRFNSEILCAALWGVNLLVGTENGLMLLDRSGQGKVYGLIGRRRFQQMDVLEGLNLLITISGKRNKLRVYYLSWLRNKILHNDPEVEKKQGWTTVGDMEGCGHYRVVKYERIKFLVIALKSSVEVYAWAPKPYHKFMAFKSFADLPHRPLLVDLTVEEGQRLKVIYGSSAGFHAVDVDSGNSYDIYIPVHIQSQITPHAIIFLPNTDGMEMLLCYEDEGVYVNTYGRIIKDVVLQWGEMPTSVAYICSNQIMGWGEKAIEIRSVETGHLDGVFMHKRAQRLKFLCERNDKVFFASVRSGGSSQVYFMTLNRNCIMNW
UniProt Q8TDM6: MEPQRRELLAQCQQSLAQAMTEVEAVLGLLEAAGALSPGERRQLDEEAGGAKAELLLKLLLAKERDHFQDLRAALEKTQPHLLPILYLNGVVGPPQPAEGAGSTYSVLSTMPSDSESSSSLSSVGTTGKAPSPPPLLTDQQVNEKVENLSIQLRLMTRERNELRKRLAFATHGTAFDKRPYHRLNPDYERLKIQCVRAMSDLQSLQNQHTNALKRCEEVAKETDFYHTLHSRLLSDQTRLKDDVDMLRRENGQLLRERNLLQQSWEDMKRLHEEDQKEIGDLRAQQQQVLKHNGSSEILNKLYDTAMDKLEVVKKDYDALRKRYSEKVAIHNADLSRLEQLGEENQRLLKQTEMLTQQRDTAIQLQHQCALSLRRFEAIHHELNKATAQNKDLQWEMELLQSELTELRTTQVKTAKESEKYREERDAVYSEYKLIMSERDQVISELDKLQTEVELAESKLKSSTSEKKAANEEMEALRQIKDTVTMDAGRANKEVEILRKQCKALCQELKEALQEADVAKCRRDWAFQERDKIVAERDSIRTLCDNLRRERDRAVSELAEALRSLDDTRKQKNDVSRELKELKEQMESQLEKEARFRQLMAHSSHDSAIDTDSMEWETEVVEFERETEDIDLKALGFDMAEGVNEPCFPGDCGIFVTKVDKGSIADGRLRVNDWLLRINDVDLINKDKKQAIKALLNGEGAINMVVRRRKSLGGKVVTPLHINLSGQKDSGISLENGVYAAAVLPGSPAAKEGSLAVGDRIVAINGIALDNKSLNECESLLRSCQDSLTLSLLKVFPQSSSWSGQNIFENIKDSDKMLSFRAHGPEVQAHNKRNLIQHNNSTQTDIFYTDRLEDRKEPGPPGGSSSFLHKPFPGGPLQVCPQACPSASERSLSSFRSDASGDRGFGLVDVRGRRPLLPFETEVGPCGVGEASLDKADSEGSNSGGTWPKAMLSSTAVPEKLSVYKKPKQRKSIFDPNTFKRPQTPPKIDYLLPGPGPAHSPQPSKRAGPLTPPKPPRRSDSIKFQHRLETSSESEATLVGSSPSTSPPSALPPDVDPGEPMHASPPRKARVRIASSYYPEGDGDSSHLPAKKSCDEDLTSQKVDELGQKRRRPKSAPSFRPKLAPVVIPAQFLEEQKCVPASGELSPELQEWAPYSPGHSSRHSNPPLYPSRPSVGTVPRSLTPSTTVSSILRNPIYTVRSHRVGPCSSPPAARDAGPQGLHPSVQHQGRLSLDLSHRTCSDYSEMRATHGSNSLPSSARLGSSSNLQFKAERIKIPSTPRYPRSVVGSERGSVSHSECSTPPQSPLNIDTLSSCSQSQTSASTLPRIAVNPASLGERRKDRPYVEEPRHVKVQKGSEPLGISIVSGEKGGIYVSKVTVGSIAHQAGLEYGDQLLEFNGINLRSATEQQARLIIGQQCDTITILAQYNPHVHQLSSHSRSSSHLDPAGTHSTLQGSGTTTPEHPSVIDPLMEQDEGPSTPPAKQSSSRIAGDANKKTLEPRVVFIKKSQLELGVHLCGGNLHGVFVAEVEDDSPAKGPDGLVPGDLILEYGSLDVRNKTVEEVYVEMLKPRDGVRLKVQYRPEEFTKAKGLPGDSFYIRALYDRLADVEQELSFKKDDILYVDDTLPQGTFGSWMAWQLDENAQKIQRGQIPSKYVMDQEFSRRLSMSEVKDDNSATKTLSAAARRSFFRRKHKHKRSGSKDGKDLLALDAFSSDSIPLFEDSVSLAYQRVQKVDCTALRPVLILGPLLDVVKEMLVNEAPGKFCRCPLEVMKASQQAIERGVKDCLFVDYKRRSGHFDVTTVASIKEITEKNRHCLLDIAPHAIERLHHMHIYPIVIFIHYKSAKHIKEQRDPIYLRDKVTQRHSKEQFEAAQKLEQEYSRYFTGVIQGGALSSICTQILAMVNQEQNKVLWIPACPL

T1: PTPRK ICD-C1089S (substrate-trapping mutant) (human) (UniProt Q15262)
T1 sequence (chain, biotin on the AviTag): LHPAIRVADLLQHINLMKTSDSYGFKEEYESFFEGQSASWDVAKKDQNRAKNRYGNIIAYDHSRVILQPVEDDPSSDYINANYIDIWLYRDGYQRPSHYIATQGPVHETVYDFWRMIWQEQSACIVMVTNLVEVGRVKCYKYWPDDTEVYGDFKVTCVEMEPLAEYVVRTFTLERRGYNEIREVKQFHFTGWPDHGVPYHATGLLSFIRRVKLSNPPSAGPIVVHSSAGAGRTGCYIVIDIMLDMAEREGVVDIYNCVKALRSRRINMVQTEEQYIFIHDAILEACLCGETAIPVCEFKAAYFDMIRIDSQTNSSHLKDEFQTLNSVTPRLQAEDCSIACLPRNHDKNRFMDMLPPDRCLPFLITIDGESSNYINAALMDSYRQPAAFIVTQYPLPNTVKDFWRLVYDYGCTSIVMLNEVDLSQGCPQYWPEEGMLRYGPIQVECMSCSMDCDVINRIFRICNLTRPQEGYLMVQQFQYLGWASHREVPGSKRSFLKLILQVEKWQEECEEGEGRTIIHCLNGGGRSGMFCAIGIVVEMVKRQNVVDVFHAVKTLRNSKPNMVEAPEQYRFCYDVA


target: T1, PTPRK ICD-C1089S (substrate-trapping mutant) (human); assay: pull-down; biotinylated His.TEV.Avi PTPRK, PTPRM or chimeric domains on streptavidin-coated magnetic beads; lysate of confluent, pervanadate-treated MCF10A cells, 1.5 hr at 4°C; immunoblot of inputs, supernatants and pull downs; only the target purified

Row | binding | Molecule
1 | binds | NUFIP2 (protein, UniProt Q7Z417 1-695) MEEKPGQPQPQHHHSHHHPHHHPQQQQQQPHHHHHYYFYNHSHNHHHHHHHQQPHQYLQHGAEGSPKAQPKPLKHEQKHTLQQHQETPKKKTGYGELNGNAGEREISLKNLSSDEATNPISRVLNGNQQVVDTSLKQTVKANTFGKAGIKTKNFIQKNSMDKKNGKSYENKSGENQSVDKSDTIPIPNGVVTNNSGYITNGYMGKGADNDGSGSESGYTTPKKRKARRNSAKGCENLNIVQDKIMQQETSVPTLKQGLETFKPDYSEQKGNRVDGSKPIWKYETGPGGTSRGKPAVGDMLRKSSDSKPGVSSKKFDDRPKGKHASAVASKEDSWTLFKPPPVFPVDNSSAKIVPKISYASKVKENLNKTIQNSSVSPTSSSSSSSSTGETQTQSSSRLSQVPMSALKSVTSANFSNGPVLAGTDGNVYPPGGQPLLTTAANTLTPISSGTDSVLQDMSLTSAAVEQIKTSLFIYPSNMQTMLLSTAQVDLPSQTDQQNLGDIFQNQWGLSFINEPSAGPETVTGKSSEHKVMEVTFQGEYPATLVSQGAEIIPSGTEHPVFPKAYELEKRTSPQVLGSILKSGTTSESGALSLEPSHIGDLQKADTSSQGALVFLSKDYEIESQNPLASPTNTLLGSAKEQRYQRGLERNDSWGSFDLRAAIVYHTKEMESIWNLQKQDPKRIITYNEAMDSPDQ

target: PTPRM intracellular domain (ICD) (human) (UniProt P28827); assay: as above

Row | binding | Molecule
2 | binds | MINK1 (from UniProt Q8N4C8 1-1332)
3 | binds | DLG5 (from UniProt Q8TDM6 1-1919)
4 | binds | PTPN14 (protein, UniProt Q15678 1-1187) MPFGLKLRRTRRYNVLSKNCFVTRIRLLDSNVIECTLSVESTGQECLEAVAQRLELRETHYFGLWFLSKSQQARWVELEKPLKKHLDKFANEPLLFFGVMFYVPNVSWLQQEATRYQYYLQVKKDVLEGRLRCTLDQVIRLAGLAVQADFGDYNQFDSQDFLREYVLFPMDLALEEAVLEELTQKVAQEHKAHSGILPAEAELMYINEVERLDGFGQEIFPVKDNHGNCVHLGIFFMGIFVRNRIGRQAVIYRWNDMGNITHNKSTILVELINKEETALFHTDDIENAKYISRLFATRHKFYKQNKICTEQSNSPPPIRRQPTWSRSSLPRQQPYILPPVHVQCGEHYSETHTSQDSIFHGNEEALYCNSHNSLDLNYLNGTVTNGSVCSVHSVNSLNCSQSFIQASPVSSNLSIPGSDIMRADYIPSHRHSAIIVPSYRPTPDYETVMRQMKRGILHTDSQSQSLRNLNIINTHAYNQPEDLVYSQPEMRERHPYTVPYGPQGVYSNKLVSPSDQRNPKNNVVPSKPGASAISHTVSTPELANMQLQGSHNYSTAHMLKNYLFRPPPPYPRPRPATSTPDLASHRHKYVSGSSPDLVTRKVQLSVKTFQEDSSPVVHQSLQEVSEPLTATKHHGTVNKRHSLEVMNSMVRGMEAMTLKSLHLPMARRNTLREQGPPEEGSGSHEVPQLPQYHHKKTFSDATMLIHSSESEEEEEEAPESVPQIPMLREKMEYSAQLQAALARIPNKPPPEYPGPRKSVSNGALRQDQASLPPAMARARVLRHGPAKAISMSRTDPPAVNGASLGPSISEPDLTSVKERVKKEPVKERPVSEMFSLEDSIIEREMMIRNLEKQKMAGLEAQKRPLMLAALNGLSVARVSGREENRVDATRVPMDERFRTLKKKLEEGMVFTEYEQIPKKKANGIFSTAALPENAERSRIREVVPYEENRVELIPTKENNTGYINASHIKVVVGGAEWHYIATQGPLPHTCHDFWQMVWEQGVNVIAMVTAEEEGGRTKSHRYWPKLGSKHSSATYGKFKVTTKFRTDSVCYATTGLKVKHLLSGQERTVWHLQYTDWPDHGCPEDVQGFLSYLEEIQSVRRHTNSMLEGTKNRHPPIVVHCSAGVGRTGVLILSELMIYCLEHNEKVEVPMMLRLLREQRMFMIQTIAQYKFVYQVLIQFLQNSRLI
5 | binds | ABLIM3 (protein, UniProt O94929 1-683) MNTSIPYQQNPYNPRGSSNVIQCYRCGDTCKGEVVRVHNNHFHIRCFTCQVCGCGLAQSGFFFKNQEYICTQDYQQLYGTRCDSCRDFITGEVISALGRTYHPKCFVCSLCRKPFPIGDKVTFSGKECVCQTCSQSMASSKPIKIRGPSHCAGCKEEIKHGQSLLALDKQWHVSCFKCQTCSVILTGEYISKDGVPYCESDYHAQFGIKCETCDRYISGRVLEAGGKHYHPTCARCVRCHQMFTEGEEMYLTGSEVWHPICKQAARAEKKLKHRRTSETSISPPGSSIGSPNRVICAKVDNEILNYKDLAALPKVKSIYEVQRPDLISYEPHSRYMSDEMLERCGYGESLGTLSPYSQDIYENLDLRQRRASSPGYIDSPTYSRQGMSPTFSRSPHHYYRSGPESGRSSPYHSQLDVRSSTPTSYQAPKHFHIPAGDSNIYRKPPIYKRHGDLSTATKSKTSEDISQTSKYSPIYSPDPYYASESEYWTYHGSPKVPRARRFSSGGEEDDFDRSMHKLQSGIGRLILKEEMKARSSSYADPWTPPRSSTSSREALHTAGYEMSLNGSPRSHYLADSDPLISKSASLPAYRRNGLHRTPSADLFHYDSMNAVNWGMREYKIYPYELLLVTTRGRNRLPKDVDRTRLERHLSQEEFYQVFGMTISEFDRLALWKRNELKKQARLF
6 | binds | PKP3 (protein, UniProt Q9Y446 1-797) MQDGNFLLSALQPEAGVCSLALPSDLQLDRRGAEGPEAERLRAARVQEQVRARLLQLGQQPRHNGAAEPEPEAETARGTSRGQYHTLQAGFSSRSQGLSGDKTSGFRPIAKPAYSPASWSSRSAVDLSCSRRLSSAHNGGSAFGAAGYGGAQPTPPMPTRPVSFHERGGVGSRADYDTLSLRSLRLGPGGLDDRYSLVSEQLEPAATSTYRAFAYERQASSSSSRAGGLDWPEATEVSPSRTIRAPAVRTLQRFQSSHRSRGVGGAVPGAVLEPVARAPSVRSLSLSLADSGHLPDVHGFNSYGSHRTLQRLSSGFDDIDLPSAVKYLMASDPNLQVLGAAYIQHKCYSDAAAKKQARSLQAVPRLVKLFNHANQEVQRHATGAMRNLIYDNADNKLALVEENGIFELLRTLREQDDELRKNVTGILWNLSSSDHLKDRLARDTLEQLTDLVLSPLSGAGGPPLIQQNASEAEIFYNATGFLRNLSSASQATRQKMRECHGLVDALVTSINHALDAGKCEDKSVENAVCVLRNLSYRLYDEMPPSALQRLEGRGRRDLAGAPPGEVVGCFTPQSRRLRELPLAADALTFAEVSKDPKGLEWLWSPQIVGLYNRLLQRCELNRHTTEAAAGALQNITAGDRRWAGVLSRLALEQERILNPLLDRVRTADHHQLRSLTGLIRNLSRNARNKDEMSTKVVSHLIEKLPGSVGEKSPPAEVLVNIIAVLNNLVVASPIAARDLLYFDGLRKLIFIKKKRDSPDSEKSSRAASSLLANLWQYNKLHRDFRAKGYRKEDFLGP
